# The other results are listed elsewhere or left out.
# B1: Tamarinin (protein)
# chain: CDDSARAGNIVVYWGQGGSDNSEGSLKEACKSGHYNMIVLQQLIVYDDGRDPDLNLGAHCSDCTKLEEQIKYCQNKDIKILLQIGQVVPTQEDVKDVTKNLSEYLLKNFFSGKSGPLGEVYLNGIDIASVPEGNNLKFDELVEALNDSSTERRIYLSASPLCVYPDYYLNKAIQTEKLDFLFVQFFYQNPCIYTEGNPENLFEAMKTWTKNVPESMIFMALPATPNLDGYIPPRVLNKEILPAVSEASNFAGVMIFDRYFDRFRKYSSKIK
# Assays:
# Experiment in all cases: glycan array binding signal (z-score within array); higher = stronger binding
# Details in all cases: glycan notation: IUPAC condensed, linker removed
# [1] = molecular target: Gal(b1-4)GlcNAc(b1-2)Man(a1-3)[Gal(b1-4)GlcNAc(b1-2)Man(a1-6)]Man(b1-4)GlcNAc(b1-4)[Fuc(a1-6)]GlcNAc
# Outline: (§1)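 From the Consortium for Functional Glycomics database, 3228 arrays were curated, keeping only those whose protein sequence was available. Binding is given as a within-array Z-score averaged across arrays sharing a protein sequence and across linkers. Negative Z-scores can be read as non-binding.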
# [2] = molecular target: Gal(b1-4)GlcNAc(b1-2)Man(a1-3)[Gal(b1-4)GlcNAc(b1-2)Man(a1-6)][Gal(b1-4)GlcNAc(b1-4)]Man(b1-4)GlcNAc(b1-4)[Fuc(a1-6)]GlcNAc
# Outline: as §1
# [3] = molecular target: Gal(b1-4)GlcNAc(b1-2)Man(a1-3)[Gal(b1-4)GlcNAc(b1-2)Man(a1-6)][GlcNAc(b1-4)]Man(b1-4)GlcNAc(b1-4)[Fuc(a1-6)]GlcNAc
# Outline: as §1
# [4] = molecular target: Gal(b1-4)GlcNAc(b1-2)Man(a1-3)[GlcNAc(b1-2)Man(a1-6)]Man(b1-4)GlcNAc(b1-4)GlcNAc
# Outline: as §1
# [5] = molecular target: Gal(b1-4)GlcNAc(b1-2)Man(a1-3)[GlcNAc(b1-4)][Gal(b1-4)GlcNAc(b1-2)Man(a1-6)]Man(b1-4)GlcNAc(b1-4)GlcNAc
# Outline: as §1
# [6] = molecular target: Gal(b1-4)GlcNAc(b1-2)Man(a1-3)[Man(a1-6)]Man(b1-4)GlcNAc(b1-4)GlcNAc
# Outline: as §1
# [7] = molecular target: Gal(b1-4)GlcNAc(b1-2)Man(a1-6)Man(b1-4)GlcNAc(b1-4)GlcNAc
# Outline: as §1
# [8] = molecular target: Gal(b1-4)GlcNAc(b1-2)Man(a1-6)[GlcNAc(b1-2)Man(a1-3)]Man(b1-4)GlcNAc(b1-4)GlcNAc
# Outline: as §1
# [9] = molecular target: Gal(b1-4)GlcNAc(b1-2)Man(a1-6)[Man(a1-3)]Man(b1-4)GlcNAc(b1-4)GlcNAc
# Outline: as §1
# [10] = molecular target: Gal(b1-4)GlcNAc(b1-2)[Gal(b1-4)GlcNAc(b1-4)]Man(a1-3)[Gal(b1-4)GlcNAc(b1-2)Man(a1-6)]Man(b1-4)GlcNAc(b1-4)GlcNAc
# Outline: as §1
# [11] = molecular target: Gal(b1-4)GlcNAc(b1-2)[Gal(b1-4)GlcNAc(b1-4)]Man(a1-3)[Gal(b1-4)GlcNAc(b1-2)[Gal(b1-4)GlcNAc(b1-6)]Man(a1-6)]Man(b1-4)GlcNAc(b1-4)GlcNAc
# Outline: as §1
# [12] = molecular target: Gal(b1-4)GlcNAc(b1-2)[Gal(b1-4)GlcNAc(b1-4)]Man(a1-3)[GlcNAc(b1-4)][Gal(b1-4)GlcNAc(b1-2)Man(a1-6)]Man(b1-4)GlcNAc(b1-4)GlcNAc
# Outline: as §1
# [13] = molecular target: Gal(b1-4)GlcNAc(b1-2)[Gal(b1-4)GlcNAc(b1-4)]Man(a1-3)[GlcNAc(b1-4)][Gal(b1-4)GlcNAc(b1-2)[Gal(b1-4)GlcNAc(b1-6)]Man(a1-6)]Man(b1-4)GlcNAc(b1-4)GlcNAc
# Outline: as §1
# [14] = molecular target: Gal(b1-4)GlcNAc(b1-2)[Gal(b1-4)GlcNAc(b1-6)]Man(a1-6)[Gal(b1-4)GlcNAc(b1-2)Man(a1-3)]Man(b1-4)GlcNAc(b1-4)GlcNAc
# Outline: as §1
# [15] = molecular target: Gal(b1-4)GlcNAc(b1-2)[Gal(b1-4)GlcNAc(b1-6)]Man(a1-6)[Gal(b1-4)GlcNAc(b1-2)Man(a1-3)]Man(b1-4)GlcNAc(b1-4)[Fuc(a1-6)]GlcNAc
# Outline: as §1
# [16] = molecular target: Gal(b1-4)GlcNAc(b1-2)[Gal(b1-4)GlcNAc(b1-6)]Man(a1-6)[GlcNAc(b1-4)][Gal(b1-4)GlcNAc(b1-2)Man(a1-3)]Man(b1-4)GlcNAc(b1-4)GlcNAc
# Outline: as §1
# [17] = molecular target: Gal(b1-4)GlcNAc(b1-2)[Gal(b1-4)GlcNAc(b1-6)]Man(a1-6)[GlcNAc(b1-4)][Gal(b1-4)GlcNAc(b1-2)[Gal(b1-4)GlcNAc(b1-4)]Man(a1-3)]Man(b1-4)GlcNAc(b1-4)[Fuc(a1-6)]GlcNAc
# Outline: as §1
# [18] = molecular target: Gal(b1-4)GlcNAc(b1-3)Gal(b1-3)GalNAc
# Outline: as §1
# [19] = molecular target: Gal(b1-4)GlcNAc(b1-3)Gal(b1-3)GlcNAc
# Outline: as §1
binder,measurement,setting,value
B1,glycan array binding signal (z-score),[1],-0.104
same,glycan array binding signal (z-score),[2],-0.296
same,glycan array binding signal (z-score),[3],-0.692
same,glycan array binding signal (z-score),[4],-0.373
same,glycan array binding signal (z-score),[5],-0.461
same,glycan array binding signal (z-score),[6],-0.282
same,glycan array binding signal (z-score),[7],-0.476
same,glycan array binding signal (z-score),[8],-0.228
same,glycan array binding signal (z-score),[9],-0.504
same,glycan array binding signal (z-score),[10],-0.463
same,glycan array binding signal (z-score),[11],-0.442
same,glycan array binding signal (z-score),[12],-0.122
same,glycan array binding signal (z-score),[13],0.105
same,glycan array binding signal (z-score),[14],-0.226
same,glycan array binding signal (z-score),[15],0.134
same,glycan array binding signal (z-score),[16],-0.438
same,glycan array binding signal (z-score),[17],-0.456
same,glycan array binding signal (z-score),[18],-0.297
same,glycan array binding signal (z-score),[19],-0.424

# Source: the supplement of paper PMC8728848
